The source of these data is the supplement of paper PMC11417369.

This is one part of the list.

The subject of this assay is PfSIP2 AP2 domain 1 (GST-tagged). The experiment in a line: gcPBM binding intensity (ln(normalized median fluorescence intensity)); higher = stronger DNA binding. In a few lines:
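An Agilent 4 × 180k array carrying primer-extended double-stranded 36-bp intergenic genomic probes and negative controls received GST-tagged P. falciparum DNA-binding domains expressed in E. coli, about 25 μg on average, for 1 h. The binding buffer contained 1× PBS, 1% milk, 0.2 mg/ml BSA, 0.5% salmon testes DNA and 0.03% Triton X-100. Binding intensity is the top Masliner-normalised natural-log median intensity across replicate spots of either probe orientation, read after Alexa488 anti-GST antibody staining and a 488 nm scan.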
Regarding “ATTAAGTTAAACATTACACACTATGTATTATTTATG [CACACA_site973]”, the “gcPBM binding intensity (ln)” value is 6.95.

In the case of “TTTTTTTTTTTTAATACACACATATTTATATTTATT [CACACA_site7802]”, the “gcPBM binding intensity (ln)” value amounted to 6.93.

Regarding “AAACAATAAAAGATTACACACATATATAGCATCTAT [CACACA_site5012]”, the “gcPBM binding intensity (ln)” value was 6.75.

“TTTCATTTGTCGTTATGTACTTATTAAATATTATTA [XGTACX_site7709]”: the “gcPBM binding intensity (ln)” value worked out at 7.43.

Take “TAAAGTAAAGACATACTTATTTTCCATCCACTTCTT [CACACA_negctrl_site1288]”: the “gcPBM binding intensity (ln)” value turned out to be 6.79.

With “CACATACAGACATACACACATACACATATACGCATA [CACACA_site1745]”, the “gcPBM binding intensity (ln)” value came to 7.5.

Take “TCTGTATATTTCGCGCGTACGAACAAATTGATAATT [XGTACX_site7965]”: the “gcPBM binding intensity (ln)” value stood at 7.11.

Consider “ATATATATTTTTATAACACACAATGAAGTACATTAC [CACACA_site8270]”, for which the “gcPBM binding intensity (ln)” value was determined as 7.27.

Turning to “ATATAATATGGTATTACACACTGTTAAAAGTATGGC [CACACA_site5190]”, the “gcPBM binding intensity (ln)” value worked out at 7.03.

On to “ATATATATAAAATGTTGTACATATATATAAATAATA [XGTACX_site1661]”, for which the “gcPBM binding intensity (ln)” value worked out at 7.29.

Consider “CTAAAATACAGACACACACACACATATATATATATA [CACACA_site4150]”, for which the “gcPBM binding intensity (ln)” value was determined as 9.52.

For “ATATGCTTATATTATATATATAAGTCTATATATTTT [XGTACX_negctrl_site349]”, the “gcPBM binding intensity (ln)” value turned out to be 6.78.

As to “TTAAAATAGGGCGAAGAAATTTTCTGTAAACATTTG [CACACA_negctrl_site1010]”, the “gcPBM binding intensity (ln)” value came out at 6.67.

On to “GGGTTTTTAAAATGTAGTACATATGTAAACATCAAA [XGTACX_site1262]”, for which the “gcPBM binding intensity (ln)” value is 7.5.

For the sequence CATAAATAAGCTTTAGTGCATTATATTTAAATTTTT, the “gcPBM binding intensity (ln)” value came out at 7.29.

For “AACATCTCATATCGTACTACACTCATATATATATAT [XGTACX_site170]”, the “gcPBM binding intensity (ln)” value turned out to be 9.38.

On to “ATAAAATGAACCTTTTGTACATATATATATATATAT [XGTACX_site4610]”, for which the “gcPBM binding intensity (ln)” value was found to be 9.34.

Consider “ATATTATATATATATAAACACACAAATATTTTTATA [CACACA_site8486]”, for which the “gcPBM binding intensity (ln)” value worked out at 7.4.

Consider “TGAATATTTCTATATACACACATATATATATATATA [CACACA_site3451]”, for which the “gcPBM binding intensity (ln)” value turned out to be 9.63.

Turning to “TTTAATAATAATAAAAGTACACAAATATAAAGGAAA [XGTACX_site5203]”, the “gcPBM binding intensity (ln)” value stood at 7.15.

Regarding AGGTTTTCTTAAATAGTGCATTATAACAAAAATAAA, the “gcPBM binding intensity (ln)” value came out at 9.66.

Consider “TCACGTATGTATATTACACACATACATATTATTCAC [CACACA_site4276]”, for which the “gcPBM binding intensity (ln)” value was 7.09.

For “CTTTTATTCAAAAGATGTACTTAAATATATATCTAA [XGTACX_site4326]”, the “gcPBM binding intensity (ln)” value was found to be 7.17.

“TGCAGTCTGGAGAAACGTACACAGTATCTGGTAACA [XGTACX_site2014]”: the “gcPBM binding intensity (ln)” value stood at 6.84.

With “ATGTGTATAATTAAATGTACATATATATATATATAT [XGTACX_site829]”, the “gcPBM binding intensity (ln)” value was 9.56.

On to “ATATATATCGGACACACACACATGTTTTAAAACTAT [CACACA_site4218]”, for which the “gcPBM binding intensity (ln)” value came out at 7.51.

Turning to “ATTTGAAATTGGTAGACACACAATAAAATATCAAAA [CACACA_site447]”, the “gcPBM binding intensity (ln)” value worked out at 6.79.

Regarding “AAAAAGTTATTATGAACACACATTTATTATAGTCAT [CACACA_site6838]”, the “gcPBM binding intensity (ln)” value is 6.81.

Take “CATATAAATATTTGTGCACACAATTATTAATAATTA [CACACA_site3884]”: the “gcPBM binding intensity (ln)” value was 9.35.

Take “TTAAACTTGAGACACACACACACACGGATATAAAAA [CACACA_site6495]”: the “gcPBM binding intensity (ln)” value was determined as 7.19.

On to “TATATATTTATTTATAGTACACTATTTATGAAAACC [XGTACX_site3062]”, for which the “gcPBM binding intensity (ln)” value is 7.33.

In the case of “CATTATTATTAACATACACACGTGTTATATACCCCC [CACACA_site9365]”, the “gcPBM binding intensity (ln)” value stood at 8.48.

As for “TAACATAAATTTAGGAGTACACTTTTTATACATACA [XGTACX_site4066]”, the “gcPBM binding intensity (ln)” value came out at 7.08.

On to “AAATTCACAATGTTTGGTACACATAAAAAAAAAAGA [XGTACX_site7109]”, for which the “gcPBM binding intensity (ln)” value came out at 7.04.

Take “AAAAATTTTTTTTTTTTTTTAAATAATAAAAATGAA [CACACA_negctrl_site1435]”: the “gcPBM binding intensity (ln)” value was determined as 6.78.

For TATTATTATTTTATGGTGCAAAAAAAAAAAAAAAAA, the “gcPBM binding intensity (ln)” value is 10.6.

With “AACATACGACAATACGCACACATATCTGTACATATT [CACACA_site5115]”, the “gcPBM binding intensity (ln)” value was determined as 7.15.

Take “AATAAAATGGAATACGGTACACATAATCCTAAAATG [XGTACX_site926]”: the “gcPBM binding intensity (ln)” value amounted to 6.95.

With “ATATTATAAAATAAAAGTACACAATTATATATATAT [XGTACX_site8812]”, the “gcPBM binding intensity (ln)” value stood at 8.6.

In the case of “TATTTTTAAAATTAAATGAATAAATAAATAAATATA [XGTACX_negctrl_site553]”, the “gcPBM binding intensity (ln)” value turned out to be 6.77.

Regarding “TATCACTATAGACAAGCATGCATATGTACTAATATC [TGCATGCA_site1020]”, the “gcPBM binding intensity (ln)” value amounted to 7.1.

As for “ATAAAAATAAACATACGTACTTACACGAATATACAT [XGTACX_site5989]”, the “gcPBM binding intensity (ln)” value amounted to 7.09.

With “CTTGAAAAAATAAAAACACACAATGTGTTTTTGAAT [CACACA_site3283]”, the “gcPBM binding intensity (ln)” value was found to be 6.66.

Regarding “TTAGATTTAAATATCATACACACTTTATATATAATA [CACACA_site959]”, the “gcPBM binding intensity (ln)” value was 6.88.

Regarding “ATATTACTATATTATTGTACGTTAAAAAAAAAAAAT [XGTACX_site8734]”, the “gcPBM binding intensity (ln)” value was 7.11.
